From PubChem BioAssay AID1963576 (National Center for Advancing Translational Sciences (NCATS), 2024)
In all, about 46,000 compounds went through this assay and about 60 (0.1%) were called active. Not shown: some 3% with an inconclusive outcome. The call rests on the fitted dose curve; in most records, active means well fitted inhibition curve with a large enough effect; inconclusive means small, poorly fitted or top-dose-only effect; inactive means no such curve, though single readings can be large or run the other way. The list shows a part of the results.

Assay: Primary qHTS assay for Inhibitors of ovarian cancer metastasis using an organotypic tumor microenvironment (TME) model. Further: nearly all actives have a fitted effect of over 65% in size.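 On activity change, negative = inhibition: plate controls were DMSO wells for no effect and tomatine positive control wells for full effect.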
Details: SKOV3ip1-GFP adhesion/invasion on 3D omental model, fluorescence; series mostly up to 45.8 µM; activity change, negative = inhibition: at the top concentration
Summary of the method: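 Adhesion/invasion was scored as fixed GFP-labeled SKOV3ip1 cell counts (488/509 nm), normalized to DMSO and tomatine controls. Cancer cells in serum-free medium, with four compound doses (0.36-46 umol/L), sat 2 hr at RT then 16 hr at 37 C on a 48 hr fibroblast/mesothelial/ECM culture.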

Row | SMILES | activity change, negative = inhibition | outcome
1 | Cc1ccc(NC(=O)CSc2nc3c(sc4ccccc43)c(=O)n2CCCC(=O)NC2CCCC2)cc1C | inactive: -9.21% | –
2 | COc1ccc(C(=O)Nc2nnc(S(=O)(=O)N(C)c3ccc(C)cc3)s2)cc1 | inactive: -6.06% | –
3 | COc1ccc(C(=O)Nc2nnc(S(=O)(=O)N3CCN(c4ccc(F)cc4)CC3)s2)cc1 | inactive: 0.487% | –
4 | CCc1ccccc1Nc1ncnc2c1cnn2-c1ccc(C)cc1C | inactive: 4.61% | –
5 | COc1ccccc1CNC(=O)CN(c1ccccc1OC)S(C)(=O)=O | inactive: 9.97% | –
6 | CCOC(=O)c1c(C)[nH]c(C)c1S(=O)(=O)N1CCCC(C(=O)NCc2ccccc2Cl)C1 (stereo not given) | inactive: -4.1% | –
7 | Cc1ccc2c(c1)Cc1c(nc(-c3ccc(F)cc3)nc1SCC(=O)N1CCCCC1)O2 | inactive: 1.47% | –
8 | CCCc1cc(=O)oc2c(C)c3c(cc12)CN(CCc1ccc(Cl)cc1)CO3 | inactive: 1.58% | –
9 | Cc1ccc2oc(-c3cc(NC(=O)CC(C)C)ccc3Cl)nc2c1 | inactive: -7.84% | –
10 | CCC(C)NC(=O)Cn1c(=O)n(-c2ccc(OC)c(OC)c2)c(=O)c2ccccc21 (stereo not given) | – | inactive
11 | COc1ccc2cc(CCNS(=O)(=O)c3ccc(C)cc3)c(=O)[nH]c2c1 | – | inactive
12 | CCOC(=O)C1CCN(C(=O)c2c(C)nn(-c3ccc(F)cc3)c2-n2cccc2)CC1 | – | inactive
13 | CC[C@H](Nc1ncnc2nc[nH]c12)c1nc2cccc(F)c2c(=O)n1-c1ccccc1 | inactive: -12.4% | –
14 | Cc1ccc(Nc2c(-c3cccnc3)nc3ccc(Cl)cn23)cc1 | inactive: 6.66% | –
15 | O=C(Nc1ccc(Cl)cc1)c1ccc(-n2cnnc2)cc1 | inactive: 8.67% | –
16 | O=C(COCc1cc(-c2cccs2)on1)NCc1ccc(F)cc1 | inactive: -1.73% | –
17 | CC(C)c1ccc(NC(=O)C2CCCN2S(=O)(=O)c2ccc3nc(-c4ccccc4)[nH]c3c2)cc1 (stereo not given) | inactive: 3.92% | –
18 | CCc1cc(=O)[nH]c(SCc2nc(-c3cccc(Cl)c3)no2)n1 | inactive: 14.5% | –
19 | Cc1ccc(-n2ncc3c(N4CCN(Cc5ccccc5)CC4)ncnc32)cc1Cl | inactive: -17.7% | –
20 | Cc1ccc(Cl)cc1N1CCN(S(=O)(=O)c2ccc3c(c2)C(C(C)C)C(=O)N3)CC1 (stereo not given) | inactive: 2.75% | –
21 | CCCc1nnc(NC(=O)Cc2coc3c(C)c(C)ccc23)s1 | inactive: 0.634% | –
22 | O=S(=O)(c1ccc(-c2csc(=Nc3ccc(F)cc3)n2CCCCCCO)cc1)N1CCCC1 | inactive: -12.4% | –
23 | Cc1cccc(OCC(=O)Nc2ccc3c(c2)nc(CN2CCCCC2)n3C)c1 | inactive: 2.85% | –
24 | COc1cc(NC(=O)Cn2ccc3ccccc3c2=O)cc(OC)c1OC | – | inactive

Row | SMILES | activity change, negative = inhibition | outcome
25 | COc1ccc(C(=O)N(Cc2sccc2C)C2CCS(=O)(=O)C2)cc1 (stereo not given) | inactive: -11.2% | –
26 | CCOCCCn1c(SCC(=O)Nc2ccc(CC)cc2)nc2ccccc2c1=O | – | inactive
27 | Cn1c(C(=O)NCCc2ccccc2)cc2sc(Cl)cc21 | inactive: 0.555% | –
28 | Cc1ccc(CNC(=O)CSc2nc3ccsc3c(=O)n2-c2ccc(Br)cc2)cc1 | inactive: 15.5% | –
29 | Cc1nc(C)c(-c2ccc(SCC(=O)Nc3cccc(C)c3C)nn2)s1 | inactive: -9.37% | –
30 | Cc1ccc(-n2ncc(C(=O)NCCN3CCN(C)CC3)c2C2CCN(C(=O)OC(C)(C)C)CC2)cc1 | inactive: -8% | –
31 | CCOc1ccc(CNC(=O)CN2N=C(c3ccccc3)CCC2=O)cc1OC | inactive: -5.58% | –
32 | CCc1ccc(C2C(C(=O)Nc3ccccc3OC)=C(C)Nc3nc(SCc4ccccc4)nn32)cc1 (stereo not given) | inactive: -3.83% | –
33 | CCC1Oc2ccc(C)cc2N(CC(=O)N2CCN(c3ccccc3OC)CC2)C1=O (stereo not given) | inactive: 7.91% | –
34 | Cc1noc(C)c1S(=O)(=O)N(CC(=O)NCCc1ccc(Cl)cc1)c1ccc(C(C)C)cc1 | – | inactive
35 | CCOc1ccc(Nc2nc(C)c(NC(=O)c3cccc(F)c3)c(Nc3ccc(OCC)cc3)n2)cc1 | inactive: -8.03% | –
36 | COc1cccc(-c2oc3ccc(C)cc3c(=O)c2O)c1 | inactive: -4.63% | –
37 | Cc1ccc(Cn2c(CNC(=O)c3ccc(Cl)c([N+](=O)[O-])c3)nc3cccnc32)cc1 | inactive: 2.42% | –
38 | CCc1ccc(NC(=O)C2CCN(S(=O)(=O)c3cccc(-c4noc(C)n4)c3)CC2)cc1 | – | inactive
39 | CCOc1cc(CNC(=O)Cn2ncn3c(cc4cc(F)ccc43)c2=O)cc(OCC)c1OCC | inactive: 0.777% | –
40 | CC(=O)c1ccc(NC(=O)CC2Nc3cc(C)c(C)cc3NC2=O)cc1 (stereo not given) | inactive: -5.41% | –
41 | Cc1ccccc1C(=O)NNc1ncnc2c1cnn2-c1cccc(Cl)c1 | inactive: -21.4% | –
42 | COc1ccc(N2C(=O)CSC23C(=O)N(CC(N)=O)c2ccccc23)cc1 (stereo not given) | inactive: -2.15% | –
43 | CCN(Cc1ccccc1)S(=O)(=O)c1ccc(F)c(C(=O)Nc2cc(C(F)(F)F)ccc2Cl)c1 | inactive: 7.74% | –
44 | CCOc1cccc2sc(NC(=O)CS(=O)(=O)c3ccc(C)cc3)nc12 | – | inactive
45 | COC(=O)Cc1c(C)nc2nc(-c3ccc(C)cc3)[nH]n2c1=O | inactive: -6.26% | –
46 | CCOc1ccc(CCNC(=O)c2cnc3sc(N4CCCCC4)nn3c2=O)cc1 | – | inactive
47 | O=C(Nc1cc(C(F)(F)F)ccc1Cl)c1cnn(-c2ccccc2)c1-n1cccc1 | inactive: -5.14% | –
48 | CC(C)c1ccc(N2C(=O)N(Cc3ccccc3Cl)c3ccccc3S2(=O)=O)cc1 | inactive: 7.77% | –

Row | SMILES | activity change, negative = inhibition | outcome
49 | COc1ccc(-n2c(=O)c3sc4ccccc4c3n(CC(=O)NC3CCCCC3)c2=O)cc1 | – | inactive
50 | CCCCOc1ccc(C(=O)N(Cc2ccco2)Cc2ccco2)cc1 | – | inactive
51 | COc1ccccc1C1CC(=O)N(c2cccc(C(F)(F)F)c2)C2=C1C(=O)OC2 (stereo not given) | inactive: -9.76% | –
52 | COC(=O)c1c(-c2ccccc2)c(-c2ccccc2)nn(C)c1=O | inactive: 2.65% | –
53 | COc1ccc(-n2c(=O)c3c(c4cc(OC)ccc4n3C)n(CCC(C)C)c2=O)cc1 | inactive: 9.8% | –
54 | COCCNC(=O)CCCn1c(SCc2ccccc2Cl)nc2c(sc3ccccc32)c1=O | inactive: -4.52% | –
55 | COC(=O)c1ccc([C@H]2Nc3ccc(S(=O)(=O)Nc4cccc(C)c4)cc3[C@H]3C=CC[C@H]32)cc1 | inactive: -7.72% | –
56 | CCN1CCSc2ccc(C(=O)NCc3ccccc3Br)cc21 | inactive: 4.88% | –
57 | O=c1[nH]c(SCc2cccc(Cl)c2)nc2c1CCC2 | inactive: 1.75% | –
58 | Cc1cc(CN2CCN(c3ccc(F)cc3)CC2)cs1 | inactive: 4.49% | –
59 | Cc1c(-c2nnc(SCC(=O)Nc3ccc(Cl)cc3)o2)nnn1-c1ccc(F)cc1 | inactive: 6.58% | –
60 | Cc1cc(Br)cc2c(C(=O)OCC(=O)c3ccccc3)cc(-c3ccccc3)nc12 | inactive: 8.46% | –
61 | CCC(=O)Nc1nnc2n1CCS2 | – | inactive
62 | Cc1cccc(N(CC(N)=O)C2SC(=O)N(Cc3cccc(C(=O)O)c3)C2=O)c1 (stereo not given) | inactive: 13.3% | –
63 | COc1ccccc1N1CCN(C(=O)CCS(=O)(=O)c2cc(Br)cc3c2N(C(C)=O)CC3)CC1 | inactive: -7.69% | –
64 | COc1ccc(Cn2c(CO)cnc2SCc2cccc(C)c2)cc1 | inactive: -14.8% | –
65 | Cc1nc(N2CCCC2)ncc1C(=O)N1CCN(c2ccccc2F)CC1 | inactive: -19.1% | –
66 | COc1ccc(CNC(=O)c2cc3c(=O)n(C)c4ccccc4c3n2C)c(OC)c1 | inactive: 9.62% | –
67 | Cc1cc(C)c2oc(-c3ccc(C)c(NC(=O)/C=C/c4ccco4)c3)nc2c1 | – | inactive
68 | O=C(COc1ccc(Cl)cc1)NCC(c1ccco1)S(=O)(=O)c1ccc(Cl)cc1 (stereo not given) | inactive: -9.28% | –
69 | Cc1ccc(NC(=O)c2nnn(CC(=O)Nc3ccc(C)c(Cl)c3)c2N)c(C)c1 | inactive: 1.84% | –
70 | COc1cccc(-c2nc(S(=O)(=O)c3ccccc3)c(N3CCC(C)CC3)o2)c1 | – | inactive
71 | CC1=C(C(=O)Nc2ccccc2)C(c2cc(Br)ccc2F)n2ncc(C(=O)Nc3ccccc3)c2N1 (stereo not given) | – | inactive
72 | Cc1ccc(C(=O)n2nc(C)c(S(=O)(=O)N3CCOCC3)c2C)cc1C | – | inactive

Row | SMILES | activity change, negative = inhibition | outcome
73 | CCS(=O)(=O)c1c(Nc2cc(C)ccc2C)sc(C(=O)c2ccccc2)c1N | inactive: 9.97% | –
74 | COc1ccc(CCC(=O)c2c(O)cc(O[C@@H]3O[C@H](CO)[C@@H](O)[C@H](O)[C@@H]3O[C@@H]3O[C@@H](C)[C@H](O)[C@@H](O)[C@@H]3O)cc2O)cc1O | inactive: -1.96% | –
75 | O=c1c2ccccc2nc(-c2ccc(Cl)cc2)n1CCCOc1ccccc1F | inactive: 3.35% | –
76 | COc1ccccc1CCNC(=O)CCc1c(C)c2cc3c(C)c(C)oc3cc2oc1=O | inactive: 0.133% | –
77 | Cc1ccc(Cl)cc1NC(=O)CN1C(=O)COc2ccc(S(=O)(=O)N3CCCCCC3)cc21 | inactive: -2.32% | –
78 | Cc1cc(OCC(=O)N(Cc2ccc(N(C)C)cc2)C2CCS(=O)(=O)C2)cc(C)c1Cl (stereo not given) | inactive: -0.378% | –
79 | CC(C)c1ccc(NC(=O)CC2Oc3ccccc3NC2=O)cc1 (stereo not given) | inactive: -6.54% | –
80 | O=C(OC1C[C@H]2CC[C@@H](C1)[N+]21CCCC1)C(O)(c1ccccc1)c1ccccc1 (stereo not given in full) | inactive: 0.622% | –
81 | COc1ccc(NC(=O)Cn2c(=O)n(-c3ccc(OC)cc3)c(=O)c3ccc(C(=O)NCc4ccc(C)cc4)cc32)cc1 | inactive: -17.3% | –
82 | COc1cc(C(=O)NCCc2csc3nc(-c4ccccc4C)nn23)cc(OC)c1OC | – | inactive
83 | CCN(C(=O)C(Cc1ccccc1)NS(=O)(=O)c1cccc2nsnc12)c1ccccc1 (stereo not given) | inactive: 0.812% | –
84 | O=C(c1cccs1)c1cn(CCOc2ccccc2Cl)c2ccccc12 | inactive: -1.91% | –
85 | Cc1ccc(NC(=O)C(=O)NCC(c2ccc3c(c2)OCO3)N2CCN(c3ccccc3)CC2)cc1 (stereo not given) | inactive: 6.52% | –
86 | Cc1ccc2nc(CN3CCN(C(=O)Nc4ccc(C)c(F)c4)CC3)oc2c1 | – | inactive
87 | COc1ccc(C2C(=O)N(C3CCCCCC3)CC(=O)N2CCc2ccc(OC)c(OC)c2)cc1 (stereo not given) | inactive: -6.79% | –
88 | COc1ccc(CCNC(=O)c2ccc(Cn3c(=O)c4ccccc4n(Cc4ccc(C)cc4)c3=O)cc2)cc1OC | inactive: -7.81% | –
89 | COCCCn1c(SCC(=O)Nc2ccccc2OC)nc2c(sc3ccccc32)c1=O | inactive: 11.4% | –
90 | COc1ccc(NC(=O)CSc2nc(-c3ccc(F)cc3)c3cccc(C)c3n2)cc1 | inactive: -4.4% | –
91 | CC1(C)C(=O)N(CCN2CCC(C(=O)c3ccc(F)cc3)CC2)c2ccccc21 | inactive: 0.397% | –
92 | CCOc1ccc(CCNC(=O)c2ccc(-c3nc(COc4ccc(C)cc4)c(C)o3)cc2)cc1 | inactive: -8.28% | –
93 | Cc1ccc(C)c(NC(=O)CCc2c(C)nn(-c3ccc(N4CCCC4)nn3)c2C)c1 | inactive: 7.68% | –
94 | O=C(Nc1ccc(F)cc1)[C@@H](c1ccccc1)N1Cc2ccccc2C1=O | – | inactive
95 | COc1cc(OC)c(NC(=O)Cc2ccc(-n3c(C)nc4cccnc43)cc2)cc1Cl | – | inactive
